Data: ChEMBL document CHEMBL1157539, “Thousands of chemical starting points for antimalarial lead identification” (Nature, 2010)
“And” between values parts separate entries of the source, which are not always exact repeats. Equal values may be shown once. The full ranking holds about 13,000 compounds; the median of “IFI” is about 4, and the highest 2% start at about 17. Some of the results follow.

Experiment: GSK_TCMDC: Inhibition Frequency Index (IFI). The number of non-kinase HTS assays where a compound showed > 50 % inhibition, expressed as a percentage of the number of such assays in which the compound was tested (-0 is zero)
Format: functional

| Structure (SMILES) | IFI |
| --- | --- |
| Cn1cnnc1Sc1ccc(CN2CCOc3ccc(C4=CCCCC4)cc3C2)o1 | 2.63% |
| CC1CN(c2cnn(C/C=C/c3ccc(NC(=O)c4ccc([N+](=O)[O-])cc4)cc3)c(=O)c2Cl)CC(C)N1 (configuration not stated) | 1.28% |
| CC(C)OC(=O)c1ccc(NC(=O)N[C@@H](Cc2ccc(O)cc2)C(=O)NC2CC3CCC(C2)N3Cc2ccccc2)cc1 (some centres not stated) | 1.74% |
| O=C(Cn1c(CCc2cccc(F)c2F)cc(=O)c2ccccc21)N(Cc1ccc(-c2ccc(C(F)(F)F)cc2)cc1)C1CCN(CCN2CCOCC2)CC1 | 7.3% |
| Cc1cccc2nc(-c3ccc(-c4cccc(CNC(C)C)c4)s3)[nH]c12 | 5.88% |
| COc1ccc(CCN2CCC(CN(C)Cc3cnn(-c4ccccc4)c3)CC2)cc1 | -0% |
| CCCNCc1ccc(-c2ccc(CN(CCOC)C(=O)CCCOCc3ccccc3)cc2)nc1 | 2.24% |
| COc1ccc(OC)c(Cc2cnc3nc(N)nc(N)c3c2C)c1 | 4.14% |
| COc1ccc2ncc(F)c(CCN3CCC(NCc4ccc5c(c4)CCO5)CC3)c2n1 | 4.39% |
| Cc1noc(C)c1CN1Cc2ccccc2OC2(CCN(Cc3c[nH]c4cnccc34)CC2)C1 | 0% |
| COc1cc(C)nc2ccc(NC(=O)c3ccc(C(=O)Nc4ccc5nc(C)cc(OC)c5c4)cc3)cc12 | -0% |
| COc1ccc(Nc2ncc3c(-c4cccc(NC(=O)Cc5ccc(F)cc5)c4)c[nH]c3n2)cc1OC | 3.65% |
| O=C(/C=C/c1c[nH]c2ccccc12)NCCCCCN1CCC(c2c[nH]c3ccccc23)CC1 | 4.29% |
| CCC[C@@H]([C@@H](CC(C)C)C(=O)N[C@@H](CCCNc1nccc(C(F)(F)F)n1)C(=O)Nc1nccs1)N(O)C=O | 2.26% |
| CC(C)CCNC(=O)C1Cc2c([nH]c3ccc(Br)cc23)C2(CCN(Cc3ccccc3)CC2)N1 (configuration not stated) | 7.04% |
| Cc1ccccc1C1CCN(C2CCC(NC(=O)/C=C/c3cc(C(F)(F)F)ccc3F)CC2)CC1 (configuration not stated) | 8.33% |
| O=C(NC1CCCCN(Cc2ccccc2O)C1)c1cc(F)cc(F)c1 (configuration not stated) | -0% |
| CCN(CC)CCN(Cc1ccc(-c2ccc(C(F)(F)F)cc2)cc1)C(=O)Cn1c(CCc2cccc(F)c2F)cc(=O)c2c1CCCC2 | 8.57% |
| COc1ccccc1N1CCN(C(C(=O)NCc2cccc(F)c2)c2ccc(C)cc2)CC1 (configuration not stated) | 0.69% |
| CCC[C@@H]([C@@H](CC1CCCCC1)C(=O)N[C@H](C(=O)Nc1nccs1)C(C)(C)SC)N(O)C=O | 5.84% |
| CN(C)CCn1c(=N)n(CC(O)c2ccc(Cl)c(Cl)c2)c2ccccc21 (configuration not stated) | 2.21% |
| Cc1nnsc1C(=O)Nc1cccc(-c2ccc(-c3nc4cc(F)ccc4[nH]3)s2)c1 | 8.85% |

| Structure (SMILES) | IFI |
| --- | --- |
| COc1ccc(O)c(C(=O)c2cc(C(=O)NC3CCCCC3)c(=O)n(C3CCCCC3)c2)c1 | 10.8% |
| CC(C)CCNc1nc(NCc2ccccc2)c2cc(O)ccc2n1 | 10.1% |
| COCCCC1C(=O)OC2CCCC21 (configuration not stated) | -0% |
| Cc1c(C)n(C2CCCCC2)c2ncnc(OC3CCN(CC(=O)N4CCCC4)CC3)c12 | 6.67% |
| CC(=O)c1ccc(N2CCN(CCC3(c4ccc(Cl)c(Cl)c4)COCN(C(=O)c4ccccc4)C3)CC2)cc1 (configuration not stated) | 4.9% |
| CC(=O)Nc1ccc(C(=O)Nc2cccc(-c3ccc(-c4nc5cc(F)ccc5[nH]4)s3)c2)cn1 | 3.7% |
| COc1ccc(C[C@H](N)C(=O)N[C@H]2[C@@H](O)[C@H](n3cnc4c(N(C)C)ncnc43)O[C@@H]2CO)cc1 | 10% and 8.45% |
| CCCCNCc1ccc(-c2nc(CN(CCCN3CCN(C)CC3)C(=O)Nc3cccc(Cl)c3)cs2)cc1 | 6.71% |
| N#Cc1cccc(C(=O)Nc2cccc(-c3cccc(CN4CCNCC4)c3)c2)c1 | 3.96% |
| CN1CCCN(c2ccnc3cc4c(cc23)N(C(=O)c2ccc(C(F)(F)F)cc2)CC4)CC1 | 1.41% |
| CC(C)(C)c1cc(C(=O)N2CCN(c3cnccn3)CC2)n(Cc2ccccc2)n1 | 0% |
| N#C/N=C(\NCCCCCCCCN/C(=N\C#N)NCCSCc1csc(N=C(N)N)n1)NCCCSc1csc(N=C(N)N)n1 | 9.3% |
| CCN(CC)CCCNc1cc[n+]([O-])c2cc3ccccc3cc12 | 1.47% |
| Cc1cc(NCCc2ccccc2)nc(NC(=N)Nc2cccc(F)c2)n1 | 6.77% |
| CC(=O)Nc1ccc2[nH]cc(C3CCN(CC4CCC(NC(=O)/C=C/c5ccccc5Cl)CC4)CC3)c2n1 (configuration not stated) | 0.7% |
| Cc1cc(Nc2cccc(C(F)(F)F)c2)nc(Nc2cccc(C(F)(F)F)c2)n1 | 4.35% |
| Cc1ccc(F)c(OCC2CCN(c3ncc(C(=O)NC4CC4)cc3Cl)CC2)c1 | 17.3% |
| CC1(C)CCCN(C(=O)c2cccc(-n3nc(-c4ccc(Cl)cc4)cc3N)c2)C1 | 5.56% |
| FC(F)(F)c1cc(C(F)(F)F)c2cc(CNCCCNc3nc4ccccc4[nH]3)[nH]c2c1 | 11.2% |
| O=C(CCCCCNC(=O)c1ccc(O)c(-c2ccc(Cl)c(Cl)c2)c1)NCCN1CCOCC1 | -0% |
| COc1ccc(-c2nc(NC(=O)Cc3ccc4c(c3)OCCO4)sc2C)cc1 | 5.26% |
| O=C(Nc1nc(-c2ccccn2)cs1)c1ccc(S(=O)(=O)N2CCc3ccccc32)cc1 | 4.65% |

| Structure (SMILES) | IFI |
| --- | --- |
| Cc1ccc(O)cc1Nc1ccnc2ccc(-c3cccc(CNCCN(C)C)c3)cc12 | 4.41% |
| COc1ccc2nccc(NCC3(O)CCN(CCc4ccc5c(c4)OCCO5)CC3)c2n1 | 6.62% |
| COc1ccc(CNC(=O)NC2CCN(c3ccnc(Nc4cc(OC)c(OC)c(OC)c4)n3)C2)cc1 (configuration not stated) | 3.08% |
| Cc1ccc(Cn2cnc3cc(C(=O)Nc4ccc(-c5ccc(CN(C)C)cc5)cc4)ccc3c2=O)o1 | 9.26% |
| Cc1cc(N2CCCC2)nc(Nc2ccc(NC(=O)C3CCCC3)cc2)n1 | 9.62% |
| COCCN1CCC(C(=O)NCC(C)(C)c2nc(-c3ccc(Br)c(O)c3)c(-c3ccncc3)[nH]2)CC1 | -0% |
| COc1cc(C(=O)N2COCC(CCCN3CCC(N4CCCC4)CC3)(c3ccc(Cl)c(Cl)c3)C2)cc(OC)c1OC (configuration not stated) | 2.78% |
| CN/C(=N\O)NCCN(C)C | 1.43% |
| Cn1c2c(c3ccccc31)CN(CCC1(c3ccc(Cl)c(Cl)c3)CN(C(=O)Cc3ccccc3)CCO1)CC2 (configuration not stated) | 4.41% |
| COCCN1CCN(Cc2ccc(-c3ccc(-c4nc5cc(F)ccc5[nH]4)cc3)cc2)CC1 | 4.9% |
| Cc1c(C(=O)N(C)C)sc2c1c(=O)n(Cc1ccccc1)c(=O)n2CC(=O)Nc1ccccc1F | 0% |
| CC(=O)CSC(C=Cc1ccc(N(C)C)cc1)=Nc1ccccc1 | 10.6% |
| COc1cccc(C(=O)NCCc2cccc(Cl)c2)c1OCc1ccccc1 | 2.14% |
| Nc1nc(N)c2c3c(ccc2n1)CCC3 | 1.46% |
| Oc1ccc2c(CNCCc3ccccc3)c(O)ccc2c1CNCCc1ccccc1 | 6.67% |
| Cc1cc(-c2cccc(CNCc3ccccc3)c2)ccc1S(=O)(=O)NCCN1CCCC1 | 12.4% |
| O=C(c1cccc(-c2ccc(-c3nc4cc(C(F)(F)F)ccc4[nH]3)cc2)c1)N1CCCCC1CN1CCC(O)C1 (configuration not stated) | 4.42% |
| O=C(Nc1ccc(-c2nc3ccccc3[nH]2)cc1)c1ccc(S(=O)(=O)N2CCc3ccccc32)cc1 | -0% |
| Fc1ccc2[nH]c(-c3ccc(-c4ccc(CN5CCN(c6cnccn6)CC5)cc4)s3)nc2c1 | 7.04% |
| CC(=O)NCCNc1nccc(N2CCc3ncnc(Nc4ccc(OCc5cccc(F)c5)c(Cl)c4)c3C2)n1 | 5.59% |
| CCCC(=O)Nc1ccc(OCCCCN(CC(C)(C)C)c2ccc(C#N)c(C(F)(F)F)c2)cc1 | 3.13% |
| COc1ccc(C(=O)CCC(=O)N(CCSC(C)(C)C)Cc2ccc(-c3ccc(CNCCc4ccc(S(C)(=O)=O)cc4)cn3)cc2)cc1F | 2.8% |

| Structure (SMILES) | IFI |
| --- | --- |
| CN1CCC(C(=O)N(Cc2ccc(-c3ccc(CNCCc4ccccc4)cn3)cc2)C2CCN(Cc3ccccc3)CC2)CC1 | 5.52% |
| CO/C(=C\C=C\c1cc2cc(Cl)c(Cl)cc2[nH]1)C(=O)NCC(C)(C)CN(C)C | 13.2% |
| CN1CC=C(c2csc3ccc(NC(=O)Nc4ccc(-c5ccncc5)c5ccccc45)cc23)CC1 | 5.22% |
| O=C(Nc1cccc(C(F)(F)F)c1)c1cccc(S(=O)(=O)NC2CCCN(CC3CCCCC3)C2)c1 (configuration not stated) | 7.14% |
| Cc1cc(N2CCCC2)nc(Nc2ccc(NC(=O)CC(C)C)cc2)n1 | 5.26% |
| N=c1c2nc(-c3c(F)cccc3Cl)[nH]c(=O)c2[nH]c(=O)n1-c1ccccc1 | -0% |
| O=C(Nc1cccc(-c2cccc(-c3nc4cc(F)ccc4[nH]3)c2)c1)c1ccoc1 | 8.93% |
| COc1ccc(CCNCC(O)c2cccc(Br)c2)c(Cl)c1OC (configuration not stated) | 3.03% |
| Cc1ccc(C(=O)Nc2ccc(-c3nc4ccccc4[nH]3)cc2)cc1S(=O)(=O)N1CCOCC1 | 3.17% |
| CN1CCN(c2ccnc3cc4c(cc23)N(C(=O)Nc2ccc3c(c2)CCCC3=O)CC4)CC1 | 1.47% |
| O=C(Nc1cccc(CN2CCCN(CC3CC3)CC2)c1)c1ccc(-c2ccccc2)cc1 | 4.79% |
| Cc1nc(C)c(-c2ccc(-c3ccc(F)cc3)cc2)c(O)c1Br | 1.49% |
| CCOc1ccc(C(C)NC(=O)c2cc(Cl)ccc2OC)cc1OCC (configuration not stated) | -0% |
| Oc1ccc(Cc2ccccc2)cc1CNC1CCCCC1 | 3.5% |
| O=C(Nc1ccc(OC2CCN(Cc3ccccc3)CC2)c(Cl)c1)c1cccs1 | 3.33% |
| C=CCC(CC=C)N1C(=O)C(c2ccccc2)(c2ccccc2)N=C1N | 3.7% |
| O=C(Nc1ccc(-c2cccc(-c3nc4cc(C(F)(F)F)ccc4[nH]3)c2)cc1)c1ccncc1 | 6.42% |
| Cc1nc(C)c(-c2ccc(Oc3ccc(OC(F)(F)F)cc3)cc2)c(O)c1I | -0% |
| Cc1ccc(-c2ccn(Cc3ccc(OCc4ccccc4)cc3)n2)cn1.Cc1ccc(-c2ccnn2Cc2ccc(OCc3ccccc3)cc2)cn1 | 1.65% |
| Cc1noc(C)c1-c1cccc(CNCc2ccc(-c3ccc(-c4nc5cc(C(F)(F)F)ccc5[nH]4)cc3)cc2)c1 | 4.81% |
| CCNC[C@H]1CCCN1CCOc1ccc(-n2cnc3cc(-c4ccc(Cl)cc4)sc3c2=O)cc1OC | 7.03% |
